Laboratory results taken from a collection of fitness landscapes (doi:10.1126/science.1257360).
This is one part of the list.

B1: PhoQ; a variant is named by its letters at X, in order, P23837 (parent)
chain: MKKLLRLFFPLSLRVRFLLATAAVVLVLSLAYGMVALIGYSVSFDKTTFRLLRGESNLFYTLAKWENNKLHVELPENIDKQSPTMTLIYDENGQLLWAQRDVPWLMKMIQPDWLKSNGFHEIEADVNDTSLLLSGDHSIQQQLQEVREDDDDAEMTHSVAVNVYPATSRMPKLTIVVVDTIPVELKSSYMVWSWFIYVLSANLLLVIPLLWVAAWWSLRPIEALAKEVRELEEHNRELLNPATTRELTSLVRNLNRLLKSERERYDKYRTTLTDLTHSLKTPLXXLQXXLRSLRSEKMSVSDAEPVMLEQISRISQQIGYYLHRASMRGGTLLSRELHPVAPLLDNLTSALNKVYQRKGVNISLDISPEISFVGEQNDFVEVMGNVLDNACKYCLEFVEISARQTDEHLYIVVEDDGPGIPLSKREVIFDRGQRVDTLRPGQGVGLAVAREITEQYEGKIVAGESMLGGARMEVIFGRQHSAPKDE

Variants of: B1
Assay: enrichment ratio after two sorts for PhoP signalling (ratio (wild type AVST 3.29)); higher = more functional
Conditions: with PhoP (E. coli)
WVWQ showed an enrichment ratio of no more than 0.25. For ALKP, the enrichment ratio was no more than 0.25. Variant GHQA has an enrichment ratio of no more than 0.25. In the case of SRQA, the enrichment ratio is reported as no more than 0.25. Variant YGNT has an enrichment ratio of no more than 0.25. RINN was tested, and the enrichment ratio was no more than 0.25. For HLQW, the enrichment ratio was no more than 0.25. Work on GMFL yielded an enrichment ratio of no more than 0.25. With AFMR the enrichment ratio was no more than 0.25. Work on KTWP yielded an enrichment ratio of no more than 0.25. For LFMK, the enrichment ratio was no more than 0.25. DRFM gave an enrichment ratio of no more than 0.25. For KIMS, the enrichment ratio was no more than 0.25. For LMSG, the enrichment ratio was no more than 0.25. AENF showed an enrichment ratio of no more than 0.25. IKVP was tested, and the enrichment ratio was no more than 0.25. MICS showed an enrichment ratio of 1.95. With HMGV the enrichment ratio was no more than 0.25. KCYD gave an enrichment ratio of no more than 0.25. DAGG was tested, and the enrichment ratio was no more than 0.25. For LDPG, the enrichment ratio was no more than 0.25. RYGP was tested, and the enrichment ratio was no more than 0.25. Variant FIHA has an enrichment ratio of no more than 0.25. For FGFT, the enrichment ratio was no more than 0.25. For GMDP, the enrichment ratio was no more than 0.25. Work on RNHE yielded an enrichment ratio of no more than 0.25. With MSYD the enrichment ratio was no more than 0.25. For IIDA, the enrichment ratio was no more than 0.25. For NRWI, the enrichment ratio was no more than 0.25. PNSG was tested, and the enrichment ratio was no more than 0.25. Work on AVLL yielded an enrichment ratio of 3.31. For DYAP, the enrichment ratio was no more than 0.25. MHMP gave an enrichment ratio of no more than 0.25. With GYWH the enrichment ratio was no more than 0.25. With WRLT the enrichment ratio was no more than 0.25. GIWE gave an enrichment ratio of no more than 0.25. MCAG showed an enrichment ratio of 8.12. With FLPT the enrichment ratio was no more than 0.25. AEYV gave an enrichment ratio of no more than 0.25. REGV showed an enrichment ratio of no more than 0.25. With DFMI the enrichment ratio was no more than 0.25. With VESA the enrichment ratio was no more than 0.25. NDYQ showed an enrichment ratio of no more than 0.25. In the case of KECN, the enrichment ratio is reported as no more than 0.25. Work on DVIH yielded an enrichment ratio of no more than 0.25. Variant QQPL has an enrichment ratio of no more than 0.25. In the case of WHLQ, the enrichment ratio is reported as no more than 0.25. QTPI gave an enrichment ratio of no more than 0.25. With FSYH the enrichment ratio was no more than 0.25. AASD showed an enrichment ratio of no more than 0.25. For FDWQ, the enrichment ratio was no more than 0.25. With CVPV the enrichment ratio was no more than 0.25. Work on NHSD yielded an enrichment ratio of no more than 0.25. Variant TNNC has an enrichment ratio of 11.1. For GDIN, the enrichment ratio was no more than 0.25. Work on HMNM yielded an enrichment ratio of no more than 0.25. Variant HMCV has an enrichment ratio of no more than 0.25. FPIH gave an enrichment ratio of no more than 0.25. VRAY showed an enrichment ratio of no more than 0.25. Variant DGVR has an enrichment ratio of no more than 0.25. Work on FRKL yielded an enrichment ratio of no more than 0.25. WDYY was tested, and the enrichment ratio was no more than 0.25. WHIF was tested, and the enrichment ratio was no more than 0.25. LVVT showed an enrichment ratio of no more than 0.25. NDQC showed an enrichment ratio of 8.9. Variant FTGA has an enrichment ratio of no more than 0.25. NSEN gave an enrichment ratio of no more than 0.25. In the case of QQPR, the enrichment ratio is reported as no more than 0.25. Work on LCTG yielded an enrichment ratio of no more than 0.25. For RVHN, the enrichment ratio was no more than 0.25. DWSR was tested, and the enrichment ratio was no more than 0.25. FYIP gave an enrichment ratio of no more than 0.25. Work on PTKW yielded an enrichment ratio of no more than 0.25. In the case of RWHV, the enrichment ratio is reported as no more than 0.25. Variant FAVA has an enrichment ratio of no more than 0.25. Work on VHQK yielded an enrichment ratio of no more than 0.25. LHEC showed an enrichment ratio of no more than 0.25. With DSAH the enrichment ratio was no more than 0.25. Variant ASHK has an enrichment ratio of no more than 0.25. In the case of FEPS, the enrichment ratio is reported as no more than 0.25. Variant GLMY has an enrichment ratio of no more than 0.25. In the case of LRMF, the enrichment ratio is reported as no more than 0.25. HALQ was tested, and the enrichment ratio was 7.8. For MEFH, the enrichment ratio was 4.99. Variant KLWL has an enrichment ratio of no more than 0.25. Work on HNIF yielded an enrichment ratio of no more than 0.25. For TDLA, the enrichment ratio was 14. With AIVM the enrichment ratio was 1.42. With ARES the enrichment ratio was no more than 0.25. Variant SFPS has an enrichment ratio of no more than 0.25. For LVKL, the enrichment ratio was no more than 0.25. LCPF was tested, and the enrichment ratio was no more than 0.25. RPRT showed an enrichment ratio of no more than 0.25. WYYL gave an enrichment ratio of no more than 0.25. WARF gave an enrichment ratio of no more than 0.25. Work on VPPI yielded an enrichment ratio of no more than 0.25. YIID showed an enrichment ratio of no more than 0.25. Variant YETS has an enrichment ratio of no more than 0.25. GYAY gave an enrichment ratio of no more than 0.25. For YKRA, the enrichment ratio was no more than 0.25. Variant QNSE has an enrichment ratio of no more than 0.25. In the case of PANI, the enrichment ratio is reported as no more than 0.25. Variant VYSA has an enrichment ratio of no more than 0.25. Variant LISH has an enrichment ratio of no more than 0.25. Work on QDVA yielded an enrichment ratio of no more than 0.25. With RSVR the enrichment ratio was no more than 0.25. YQRH showed an enrichment ratio of no more than 0.25. GHWS showed an enrichment ratio of no more than 0.25. WTSV gave an enrichment ratio of no more than 0.25. Work on QFME yielded an enrichment ratio of no more than 0.25. Variant LHCG has an enrichment ratio of no more than 0.25. KEYC was tested, and the enrichment ratio was no more than 0.25. Work on QTMN yielded an enrichment ratio of no more than 0.25. PMFA was tested, and the enrichment ratio was no more than 0.25. DCVA was tested, and the enrichment ratio was no more than 0.25. RCAH was tested, and the enrichment ratio was no more than 0.25. DFVL was tested, and the enrichment ratio was no more than 0.25. In the case of WCAW, the enrichment ratio is reported as no more than 0.25. IATE showed an enrichment ratio of no more than 0.25. AYAH showed an enrichment ratio of no more than 0.25. NMLI showed an enrichment ratio of no more than 0.25. Work on MSKY yielded an enrichment ratio of no more than 0.25. Variant LCIS has an enrichment ratio of no more than 0.25. For AIYL, the enrichment ratio was no more than 0.25. NECC gave an enrichment ratio of no more than 0.25. PTAW was tested, and the enrichment ratio was no more than 0.25. Variant KHHD has an enrichment ratio of no more than 0.25. YRTF gave an enrichment ratio of no more than 0.25. In the case of RCMV, the enrichment ratio is reported as no more than 0.25. IMEC gave an enrichment ratio of no more than 0.25. RKNH gave an enrichment ratio of no more than 0.25. EHWV was tested, and the enrichment ratio was no more than 0.25. RNPI was tested, and the enrichment ratio was no more than 0.25. SPAG gave an enrichment ratio of no more than 0.25. For MDTI, the enrichment ratio was no more than 0.25. For NWCM, the enrichment ratio was no more than 0.25. HTSS showed an enrichment ratio of no more than 0.25. EYPV gave an enrichment ratio of no more than 0.25. Work on PMSE yielded an enrichment ratio of no more than 0.25. For GNMF, the enrichment ratio was 15.2. With IVTH the enrichment ratio was no more than 0.25. With MSNY the enrichment ratio was no more than 0.25. LTWI showed an enrichment ratio of no more than 0.25. For VDTV, the enrichment ratio was no more than 0.25. In the case of HPDW, the enrichment ratio is reported as no more than 0.25. In the case of VQCV, the enrichment ratio is reported as no more than 0.25. Work on DFPT yielded an enrichment ratio of no more than 0.25. For SCCN, the enrichment ratio was 17.1. With NTRR the enrichment ratio was no more than 0.25. Work on MNWT yielded an enrichment ratio of 3.6. For FFTR, the enrichment ratio was no more than 0.25. In the case of ILAP, the enrichment ratio is reported as no more than 0.25. KADM was tested, and the enrichment ratio was no more than 0.25.
